We go through 84 compounds from PubChem BioAssay AID1346428 (National Center for Advancing Translational Sciences (NCATS), 2018).

Several values for one entry are separate records, joined by “and”; a condition that tells them apart may be missing. Equal entries are not always repeated. Screen size: about 48,000 compounds; about 1,200 (2.5%) were called active. Not shown: some 2% with an inconclusive outcome.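 How the source made its calls: active means activation of at least 60% and not above a set upper limit (about 1 call in 100 departs from these limits); inconclusive means activation of 40% to 60%, or above that upper limit; inactive means activation under 40%.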 This is one part of the list.

Chain of UniProt O75388 (O75388 whole entry, looked up): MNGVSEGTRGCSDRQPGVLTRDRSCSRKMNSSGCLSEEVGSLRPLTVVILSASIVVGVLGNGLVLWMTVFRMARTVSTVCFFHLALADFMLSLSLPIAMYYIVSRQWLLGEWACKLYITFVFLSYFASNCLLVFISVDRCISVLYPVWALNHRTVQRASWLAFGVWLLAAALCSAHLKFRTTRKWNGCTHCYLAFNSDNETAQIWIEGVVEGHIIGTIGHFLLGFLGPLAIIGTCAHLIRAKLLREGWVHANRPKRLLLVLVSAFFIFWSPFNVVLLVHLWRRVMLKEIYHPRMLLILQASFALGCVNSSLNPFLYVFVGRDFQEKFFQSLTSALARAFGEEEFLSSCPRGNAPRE

The test has as its target Probable G-protein coupled receptor 32 (Homo sapiens) (UniProt O75388). The test can be described thus: qHTS for Agonists of Human Resolvin D1 Receptor DRV1. To be noted: CHO-K1 GPR32 beta-arrestin PathHunter luminescence, 90 min; at 76.9 µM; stronger effect = higher value; zero percent set by DMSO-only wells. The method in brief:
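Beta-arrestin recruitment read-out: luminescence from complemented beta-Gal in CHO-K1 GPR32 PathHunter cells, measured 1 h after detection reagent at ambient temperature following 90 min compound exposure at 37 °C; DMSO served as basal (EC0) control.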
For orientation: Quantitative high-throughput screening tests each substance at several concentrations.
Regarding `CCN1CCN(c2cc(C)c3cc(NC(=O)c4cc(Cl)ccc4OC)ccc3n2)CC1`, the activation was inactive: -11.4%.

For `COc1ccc(C2=NC(C)(C)N(CC(=O)Nc3ccc(F)c(F)c3)C2=O)cc1`, the activation was inactive: 15.4%.

Take `Cc1nn2c(=O)cc(COC(=O)CNC(=O)c3ccc(F)cc3)nc2s1`: the activation is inactive: 6.51%.

For `COc1cccc(OC)c1C(=O)Nc1ccc(S(=O)(=O)Nc2nccc(C)n2)cc1`, the activation is inactive: 9.16%.

On to `Cc1ccc(OCC(O)Cn2c(=N)n(CCN3CCCCC3)c3ccccc32)cc1` (centres undefined), for which the activation is inactive: -1%.

Regarding `Cc1ccc(-n2ncc(C(=O)NCCCN3CCCCC3)c2C2CCN(C(=O)OC(C)(C)C)CC2)cc1`, the activation is inactive: -12.5%.

`Cc1ccc(NC(=O)c2c(C)nc3sc(C(=O)Nc4ccc(F)cc4)c(N)c3c2-c2ccccc2Cl)c(C)c1`: the activation is inactive: -5.7%.

Turning to `CCOC(=O)c1c(C)n(-c2ccccc2)c2ccc(OC(=O)c3ccccc3NC(=O)C(C)(C)C)cc12`, the activation was inactive: -15.6%.

Turning to `CC1CCC(C(=O)NC(C(=O)OCC(=O)c2ccccc2)C(C)C)CC1` (centres undefined), the activation is inactive: 9.12%.

`CCN1CCc2nc3sc(C(=O)Nc4cccc(Cl)c4C)c(N)c3cc2C1`: the activation was active: 121%.

For `CCOc1cc(C(=O)OCc2cc(=O)n3nc(CC)sc3n2)cc(OCC)c1OCC`, the activation was inactive: -15.7%.

With `CCC(=O)N1CCc2cc(Br)cc(S(=O)(=O)N3CCCC(C(=O)Nc4ccc(C(C)C)cc4)C3)c21` (centres undefined), the activation was inactive: -6.79%.

Take `CCc1cnc2c(c1SCC(=O)c1ccccc1)c(=O)n(C)c(=O)n2C`: the activation was inactive: -5.93%.

Consider `CCCCC(=O)N(c1ccc2oc(C)c(C(C)=O)c2c1)S(=O)(=O)c1ccc(F)cc1C`, for which the activation is inactive: -7.49%.

`COC(=O)c1ccccc1NC(=O)c1c(C)oc2ncn(C)c(=O)c12`: the activation was inactive: -1.84%.

Turning to `COc1ccc(OCc2nc3ccccc3n2Cc2ccccc2Cl)cc1`, the activation was inactive: -5.17%.

With `COc1ccc(-c2ccc(NS(=O)(=O)c3ccc(OC)c(OC)c3)cc2)nn1`, the activation is inactive: 9.41%.

On to `CCOc1sc2nc(C)n(CC(=O)Nc3cccc(C)c3)c(=O)c2c1C`, for which the activation was inactive: 11.3%.

For `Cc1scc2c1N(C(=O)CN1CCN(C)CC1)c1ccccc1NC2=O`, the activation is inactive: -14.1% and inactive: -2.24%.

As for `Cc1c(C(=O)NCc2cccc(Cl)c2)sc2nc3n(c(=O)c12)CCC3`, the activation was inactive: -14.4%.

Regarding `Cc1cn2c(=O)cc(COc3ccccc3NC(=O)c3ccco3)nc2s1`, the activation is inactive: -8.96%.

Take `Cc1cc2c(cc1Cl)N(C(=O)Nc1ccc(Oc3cccnc3C)nc1)CC2`: the activation is inactive: 9.3%.

As to `Cc1ccc(CNS(=O)(=O)c2cc3[nH]c(=O)c(=O)[nH]c3cc2C)cc1`, the activation is inactive: 19.5%.

Take `Cc1ccc(S(=O)(=O)NC2(C(F)(F)F)C(=O)Nc3c2c(=O)[nH]c(=O)n3-c2ccccc2)cc1` (centres undefined): the activation was inactive: -1.06%.

`O=S(=O)(c1ccc(Br)cc1)c1nnn2c1nc(N1CCOCC1)c1sccc12`: the activation is inactive: -6.95%.

`CCN1CCN(CCCNC(=O)c2cnn(-c3ccc(C)cc3C)c2C2CCN(C(=O)OC(C)(C)C)CC2)CC1`: the activation is inactive: -7.82%.

Regarding `NC(=O)c1nc(-c2ccc(F)c(F)c2)nc2c1[nH]c(=O)n2-c1cccc(Cl)c1`, the activation was inactive: -0.306%.

With `CSc1nc2sc3c(c2c(=O)n1Cc1ccccc1)CCC(C(C)(C)C)C3` (centres undefined), the activation was inactive: 9.83%.

Turning to `O=C(COC(=O)c1cc(-c2ccccc2)nc2ccccc12)c1ccc(Br)cc1`, the activation is inactive: 3.34%.

On to `Cc1ccc(C(=O)Nc2ccc3nc(SCC(=O)N4CCCc5ccccc54)sc3c2)cc1`, for which the activation was inactive: -20.5%.

Regarding `Cc1ccc(Cl)cc1NC(=O)c1cnc(N2CCCCC2)c2ccccc12`, the activation is inactive: -11.5%.

Regarding `CCCC(=O)NCC1(N(C)C)CCCCC1`, the activation is inactive: -4.75%.

`CCOC(=O)C1CCN(S(=O)(=O)c2cc(Br)cc3c2N(C(=O)CC)CC3)CC1`: the activation is inactive: -10.1%.

`N#Cc1ccc(C(=O)Nc2cc3nn(-c4ccccc4)nc3cc2Cl)c(F)c1`: the activation is inactive: -15.2%.

As for `COc1ccc(-c2nc3scc(CCNS(=O)(=O)c4ccc(C)cc4)n3n2)cc1`, the activation was inactive: 10.2%.

Take `CCOc1cc2sc(N3CCC(C(=O)Nc4ccc(C)cc4C)CC3)nc2cc1Br`: the activation was inactive: -5.1%.

Regarding `CCN1CCN(c2ncc3c(n2)CCN(Cc2cc(F)cc(F)c2)C3)CC1`, the activation was inactive: -28.9%.

Turning to `COc1ccccc1NC(=O)C(=O)NCC(c1ccc2c(c1)OCO2)N1CCN(C)CC1` (centres undefined), the activation is inactive: -10.6%.

On to `O=C(N[C@@H](Cc1ccccc1)C(=O)CCl)OCc1ccccc1`, for which the activation is inactive: -3.95%.

`COc1ccc(NC(=O)C(=O)NCCc2csc(-c3ccc(Cl)cc3)n2)cc1OC`: the activation was inactive: -0.161%.

For the compound `Cc1ccc(S(=O)(=O)NC(=O)NC2CCCC2)cc1`, the activation was inactive: -25%.

As to `Cc1cccc(C(=O)Nc2c(-c3ccccc3)nc3cc(C)ccn23)c1`, the activation was inactive: -16.1%.

For `COc1ccc(S(=O)(=O)N(CC(=O)Nc2ccccc2Br)Cc2ccccc2)cc1`, the activation was inactive: -4.91%.

Consider `Cn1c(=NC(=O)c2ccc(S(=O)(=O)N3CCCc4ccccc43)cc2)sc2cc(F)ccc21`, for which the activation is inactive: -2.02%.

`CC(C)OCCCn1c(=O)c2ccccc2n2c(-c3ccc(F)cc3)nnc12`: the activation was inactive: -5.63%.

For the compound `CCCCCCCC/C=C/C(=O)O`, the activation was inactive: -13.4%.

On to `CCOC(=O)COc1ccc([N+](=O)[O-])cc1-c1ccnc2cc(-c3ccc(Cl)cc3)nn12`, for which the activation is inactive: -1.69%.

For the compound `COC(=O)c1ccc(NC(=O)CSc2nc(=O)[nH]c3c2CCCC3)cc1`, the activation is inactive: -1.64%.

Consider `CCc1ccc(CN(Cc2ccco2)c2cnc(S(C)(=O)=O)nc2C(=O)Nc2cccc(C)c2)cc1`, for which the activation was inactive: -18%.

Regarding `CN(C)c1ccc(C(CNC(=O)c2ccccc2)N2CCc3ccccc32)cc1` (centres undefined), the activation was inactive: -28.6%.

Regarding `COc1ccccc1CNc1nc(-c2ccco2)nn1S(=O)(=O)c1ccc2ccccc2c1`, the activation was inactive: -18.8%.

For `Cc1cccc(-c2noc(-c3ccccc3OCC(=O)Nc3ccc([N+](=O)[O-])cc3)n2)c1`, the activation was inactive: -2.95%.

On to `CCC1=Nc2cc(C(=O)NCCCOC)ccc2Sc2ccc(Br)cc21`, for which the activation was inactive: -9.48%.

With `Cc1ccccc1C(=O)Nc1sc2c(c1C(=O)NCc1ccco1)CCC(C(C)(C)C)C2` (centres undefined), the activation was inactive: -18.6%.

As to `CNC(=O)C1CCC(Cn2c(=O)c3sccc3n(CC(=O)NCc3ccccc3)c2=O)CC1` (centres undefined), the activation was inactive: -1.99%.

In the case of `COCCCNC(=O)c1oc2c(c1C)-c1nn(Cc3ccccc3Cl)cc1CC2`, the activation is inactive: -21.9%.

For the compound `O=C(c1cccs1)N(Cc1cccnc1)c1nc2c(F)cc(F)cc2s1`, the activation is inactive: -13.3%.

For the compound `CCn1cc2nc(SCc3ccc(F)cc3)n(CCc3ccccc3)c(=O)c2n1`, the activation is inactive: 12.5%.

For `CCN(CCCNC(=O)c1ccc(Sc2ccc(Cl)cc2)c(NC(C)=O)c1)c1ccccc1`, the activation was inactive: -32.9%.

As to `COc1ccc(-c2nc(CSc3nnc(C)n4c3cc3oc(C)cc34)c(C)o2)cc1OC`, the activation is inactive: -8.93%.

Regarding `CCN(CC)S(=O)(=O)c1nnc(NC(=O)c2ccc(Br)cc2)s1`, the activation was inactive: 36%.

Take `O=S(=O)(c1ccccc1)c1nc(-c2cccc(Cl)c2)oc1N1CCOCC1`: the activation is inactive: -2.3%.

Regarding `COc1ccc(CCNC(=O)C2CCCN(S(=O)(=O)c3ccc4c(c3)oc(=O)n4C)C2)cc1OC` (centres undefined), the activation is inactive: -2.98%.

For the compound `CCOc1ccc(-c2cc3nc(C4CCN(C(=O)OC(C)(C)C)CC4)c(C(=O)Nc4c(C)cccc4C)cn3n2)cc1`, the activation is inactive: -5.7%.

For `Cc1ccc2c(Br)cc(Br)c(O)c2n1`, the activation is inactive: -76.7%.

`Cc1ccc(CNC(=O)CCc2cn(Cc3ccc(C)cc3)c3ccccc23)cc1`: the activation is inactive: -18.5%.

With `CCOC(=O)c1c(C)sc(-c2c(-c3cccc(Cl)c3)[nH]c3c2c(=O)n(C)c(=O)n3C)c1O`, the activation is inactive: -1.43%.

`COc1ccc(NC(=O)C2=C(C)Nc3ncnn3C2c2ccc[nH]2)cc1` (centres undefined): the activation is inactive: 18.4%.

As for `CCC(=O)Nc1ccccc1-c1nc2ccccc2n(C(CC)C(=O)Nc2cccc(Cl)c2)c1=O` (centres undefined), the activation was inactive: -30.4%.

Consider `Cc1cc(C)c(Cn2c(=O)n(CCCCC(=O)NCc3ccccc3Cl)c(=O)c3ccccc32)c(C)c1`, for which the activation is inactive: -1.21%.

For the compound `Fc1ccc2c(c1)-c1c(cnc3cc(-c4ccc(Cl)cc4)nn13)CO2`, the activation is inactive: -4.84%.

Take `CC(=O)N1CCc2cc(CNC(=O)Nc3ccc(Br)c(C)c3)ccc21`: the activation is inactive: -13.1%.

In the case of `COc1cccc(NC(=O)c2csnn2)c1`, the activation was inactive: 10.9%.

With `CC(=O)Nc1ccc(NC(=O)C2CCN(c3cnccn3)CC2)cc1`, the activation is inactive: 16.4%.

Consider `Cc1c(C(=O)N(C)C)sc2c1c(=O)n(-c1ccc(F)cc1)c(=O)n2Cc1ccccc1C#N`, for which the activation is inactive: -4.94%.

Regarding `CCc1ccccc1N(C)S(=O)(=O)c1ccc2c(c1)C(C)(C)C(=O)N2C`, the activation was inactive: 30.6%.

Turning to `COc1ccc(CCN2C(=O)c3[nH]nc(-c4ccccc4O)c3C2c2ccccc2)cc1` (centres undefined), the activation is inactive: 11.2%.

`C=Cc1ccc(Cn2ccn(-c3ccc(F)c(F)c3)c(=O)c2=O)cc1`: the activation is inactive: -13.1%.

As for `CC(C)(C)NC(=O)N1CCC(C(=O)O)CC1`, the activation was inactive: 0.482%.

Consider `Cc1ccc(CNC(=O)Cc2ccc(NC(=O)N3CCSc4ncccc43)cc2)cc1`, for which the activation was inactive: 7.55%.

As for `CCOc1ccccc1NC(=O)CN1C(=O)COc2ccc(S(=O)(=O)NC3CCCC3)cc21`, the activation was inactive: 9.78%.

Consider `CCc1ccccc1NC(=O)c1ccc2c(c1)nnn2C1CCCC1`, for which the activation is inactive: -17.4%.

Consider `CCCNC(=O)c1ccc(Cn2c(=O)c3cccn3c3cccnc32)cc1`, for which the activation was inactive: -12.9%.

For `COc1ccccc1CNC(=O)CCC1N=C2c3ccccc3N=C(SCc3ccc(Cl)cc3)N2C1=O` (centres undefined), the activation was inactive: -30.7%.
